Measurements as given in PubChem BioAssay AID686978 (National Center for Advancing Translational Sciences (NCATS), 2013).
Out of some 420,000 compounds screened, about 64,000 (15%) were called active. Inconclusive results, whose numbers are uncertain, are shown with a selection of clear calls. Calls come from the whole dose curve; as a rule, active = well fitted inhibition curve with a large enough effect; inconclusive = small, poorly fitted or top-dose-only effect; inactive = flat fitted curve, though single readings scatter. No potency is given beside an inconclusive call; the fits are too rough.

Experiment: qHTS for Inhibitors of human tyrosyl-DNA phosphodiesterase 1 (TDP1): qHTS in cells in absence of CPT; note: nearly all actives have a fitted effect of over 55% in size
Details: DT40 Tdp1-/- hTDP1 cells, no CPT, ATP luminescence, 48 h; activity change, negative = growth inhibition: at 46.2 µM (top of the series) unless noted
Method in brief: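 Growth of hTDP1-complemented DT40 Tdp1-knockout cells is measured by ATP luminescence after at least 48 hr compound exposure at 37 °C, with DMSO substituting for the 20 nM CPT used in the parallel screen.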
% is set by controls: 0 for no effect and ±100 for the full control effect; potency is the fitted concentration of half-maximal effect; tags give direction and shape of the fitted curve.

Row | Compound | Potency | activity change, negative = growth inhibition
1 | Cc1ccc2[nH]c(=O)c(CN(CCCO)Cc3nnnn3Cc3ccco3)cc2c1 | inconclusive [inhibitor, single point] | 
2 | CCn1[nH]c(=O)c(=Nc2c(C)n(C)n(-c3ccccc3)c2=O)cc1-c1ccc(Cl)cc1 | inconclusive [inhibitor, single point] | 
3 | Cc1cc(C)c2nc(-c3ccccn3)cc(C(=O)Nc3ccc(S(=O)(=O)Nc4onc(C)c4C)cc3)c2c1 | inconclusive [inhibitor, single point] | 
4 | O=c1c2cnn(-c3ccc(Cl)cc3)c2ncn1Cc1ccc(Cl)cc1Cl | inconclusive [inhibitor, single point] | 
5 | CCC(C)n1cnc2c(c1=O)c1nc3ccccc3nc1n2Cc1ccc(OC)cc1 (stereo not given) | active: 14.6 µM | 
6 | Nc1nn2c(C(F)(F)F)cc(=O)[nH]c2c1N=Nc1cccc(F)c1 |  | inactive: -12.1%
7 | COc1ccc(NC(=O)c2ccc(NS(=O)(=O)c3c(C)noc3C)cc2)cc1OC |  | inactive: -6.94%
8 | CCC(Oc1ccccc1)C(=O)Nc1nc2ccccc2[nH]1 (stereo not given) | inconclusive [inhibitor, single point] | 
9 | CCN1C(=O)CC(Sc2ccccc2C(=O)O)C1=O (stereo not given) |  | inactive: 4.32%
10 | Cc1ccc(Cn2c(=O)n(Cc3ccco3)c(=O)c3sc4ccccc4c32)cc1 | inconclusive [inhibitor, partial curve] | 
11 | N#Cc1cc(NC2CCCC2)c([N+](=O)[O-])cc1C#N | inconclusive [inhibitor, single point] | 
12 | COC(=O)c1ccc(CN2C(=O)C(Cc3ccccc3)ON=C2c2ncccc2C)o1 (stereo not given) | inconclusive [inhibitor, single point] | 
13 | Cc1c(NC(=O)Nc2ccc(Cl)c(Cl)c2)sc(=S)n1C | inconclusive [inhibitor, single point] | 
14 | CCC(CC)c1nnc(NC(=O)C2CSC3(C)CCC(=O)N23)s1 (stereo not given) |  | inactive: -9.31%
15 | Cc1cccc(NC(=S)N(c2ccccc2)C(C)C)c1C | inconclusive [inhibitor, single point] | 
16 | CC(C)(C)Cc1nnc(NC(=O)Cc2ccc([N+](=O)[O-])cc2)s1 | inconclusive [inhibitor, single point] | 
17 | CCn1c2ccccc2c2cc(NS(=O)(=O)c3ccc(C)cc3)ccc21 | inconclusive [inhibitor, single point] | 
18 | CCCCc1ccc(NC(=O)CSc2nc(=O)n3cc(C)ccc3n2)cc1 | inconclusive [inhibitor, partial curve] | 
19 | O=C(C1CCN(S(=O)(=O)c2ccc(Cl)cc2)CC1)N1CCCCCCC1 | inconclusive [inhibitor, single point] | 
20 | O=C(CCN1CCCCC1)c1ccccc1 | active: 12.6 µM | 
21 | O=C(CSc1nc2ncc(Br)cc2[nH]1)Nc1ccccc1-c1ccccc1 | inconclusive [inhibitor, single point] | 
22 | Cc1ccc(-n2c(C)cc(C(=O)CN3CCCCC3)c2C)cc1 | inconclusive [inhibitor, single point] | 
23 | Cc1cccc(C(=O)Nc2cc3c(cc2N2CCCCC2)n(C)c(=O)c(=O)n3C)c1 |  | inactive: -4.22%

Row | Compound | Potency | activity change, negative = growth inhibition
24 | O=C(C1CCCCC1)N1CCC2CC1c1cc(-c3ccc4c(c3)OCO4)ccc12 (stereo not given) | active: 18.4 µM | 
25 | CN(Cc1ccc2nonc2c1)Cc1nc(Cc2cccc(F)c2)no1 |  | inactive: 1.35%
26 | O=C(CC1N=C2c3ccccc3N=C(SCc3ccccc3F)N2C1=O)NCCc1ccccc1 (stereo not given) | active: 20.6 µM | 
27 | CCc1ccc(NC(=O)C2C3/C=C\CCCCC32)cc1 (stereo not given) | inconclusive [inhibitor, single point] | 
28 | COc1cc(NC(=O)C2CCCN2C(=O)C2CCC(C)CC2)cc(OC)c1OC (stereo not given) | inconclusive [inhibitor, partial curve] | 
29 | COc1ccccc1N1CCN(C(=O)C2CCCN(c3ncnc4c3nc3n4CCCCC3)C2)CC1 (stereo not given) | active: 16.4 µM | 
30 | O=C(COC(=O)CCc1c[nH]c2ccccc12)Nc1cccc(Cl)c1 | inconclusive [inhibitor, single point] | 
31 | N#Cc1c(C(F)(F)F)cc(-c2ccc(F)cc2)[nH]c1=O |  | inactive: -12%
32 | COc1ccc(-c2csc3nc(C)nc(N4CCCCC4)c23)cc1OC | active: 14.6 µM | 
33 | COc1ccc(NC(=O)CCC2COc3ccccc3O2)c(OC)c1 (stereo not given) |  | inconclusive: -33.7% [inhibitor]
34 | Cc1cc(N(C)C)nc(Nc2ccccc2)n1 | inconclusive [inhibitor, single point] | 
35 | O=C(CC(=O)NN=C1CCCCCC1)NCc1cccnc1 |  | inactive: 3.76%
36 | COc1ccc(CCC(=O)NCc2ccc3c(c2)CCN3C(=O)c2ccc(F)cc2)cc1 | inconclusive [inhibitor, partial curve] | 
37 | CCCS(=O)(=O)c1nc(S(=O)(=O)c2ccc(C)cc2)c(NCc2ccco2)s1 | inconclusive [inhibitor, single point] | 
38 | Cc1cccc(N2CCN(C(=O)Cn3cccc3C(=O)c3ccccc3)CC2)c1C | inconclusive [inhibitor, single point] | 
39 | Cc1ccsc1CCN1C(=O)N(c2ccccc2)C(=O)C1CC(=O)Nc1ccc(F)cc1 (stereo not given) | active: 14.6 µM | 
40 | Cc1ccc(Cl)cc1Nc1nc2ccccc2c2nncn12 | active: 23.1 µM | 
41 | COc1ccc(NC(=O)C(C)Oc2ccc(/C(C)=N\O)cc2)cc1 (stereo not given) |  | inconclusive: -31.6% [inhibitor]
42 | COc1ccccc1CNC(=O)C(=O)NCC1CCCN1S(=O)(=O)c1cccs1 (stereo not given) | inconclusive [inhibitor, single point] | 
43 | COc1ccc(-n2c(SC3CCOC3=O)nc3ccccc3c2=O)cc1Cl (stereo not given) | inconclusive [inhibitor, single point] | 
44 | Cc1[nH]c(=O)[nH]c(=O)c1S(=O)(=O)Nc1ccc(F)c(Cl)c1 |  | inactive: 23.5%
45 | O=C(c1ccccc1)N(NC(=O)C(O)(c1ccccc1)c1ccccc1)c1cccc(F)c1 | inconclusive [inhibitor, single point] | 
